Measured values as given in PubChem BioAssay AID504706 (National Center for Advancing Translational Sciences (NCATS), 2011).
About 200 (0.062%) of roughly 320,000 compounds were called active. This list was built around the results that the source calls inconclusive (neither active nor inactive); the mix of calls is not that of the screen. Calls come from the whole dose curve; as a rule, active = well fitted activation curve with a large enough effect; inconclusive = small, poorly fitted or top-dose-only effect; inactive = no such curve, though single readings can be large or run the other way. Potencies of inconclusive entries are left out as doubtful fits.

test: qHTS assay for re-activators of p53 using a Luc reporter; conditions: H1299 p53-A138V BP100-luciferase reporter, luminescence, 24 h; series mostly up to 92.2 µM; activity change, positive = activation: at the top concentration; note: nearly all actives have a fitted effect of over 45% in size; for activity change, positive = activation: % of control where 0% means no effect
Outline: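 p53-null H1299 cells stably carrying temperature-sensitive p53-A138V and a BP100-luciferase reporter were pinned with compounds (4-point, 1:5 series) and held 24 hrs at 37 deg C. Luminescence was read 10 min after detection reagent.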
Potency is the fitted concentration of half-maximal effect; tags give direction and shape of the fitted curve.

Compound	activity change, positive = activation	Potency
Oc1cc2c(cc1CN1CCc3ccccc3C1)OCO2	inactive: 6.95%	
Cc1csc2nc(CNS(=O)(=O)c3ccc(-c4ccccc4)cc3)cn12	inactive: 4.81%	
O=C(NCCSc1ccccc1)c1ccc(Br)cc1		inconclusive [activator, partial curve, poor fit]
CC(NS(=O)(=O)c1ccc2c(c1)oc(=O)n2C)c1ccccc1 (centres undefined)	inactive: -5.58%	
O=C(NCc1cccs1)c1cc(-c2cccc(Cl)c2)on1		inconclusive [activator, partial curve, poor fit]
CC(/C=C/c1ccc(N(C)C)cc1)=N/N=C1/NC(=O)CC(C(=O)Nc2ccc(Cl)cc2)S1 (centres undefined)		inconclusive [activator, single point]
Cc1cc(OCCN2CCCCCC2)ccc1[N+](=O)[O-]		inconclusive [activator, single point]
Nn1c(SCc2ccccc2)nc2ccccc21		inconclusive [activator, full curve, poor fit]
COc1cccc(-c2cc(C(=O)NCC3CCCO3)on2)c1 (centres undefined)		inconclusive [activator, partial curve, poor fit]
Brc1ccccc1OCCOc1cccc2cccnc12	inactive: 10.6%	
CCCC1=[N+](CC(=O)c2ccccc2)CCn2cccc21		inconclusive [activator, full curve, poor fit]
O=C(CNC(=O)c1ccccc1)OCc1nc2ccccc2s1		inconclusive [activator, partial curve, poor fit]
Cc1noc(C)c1S(=O)(=O)N(C)C[C@H]1Oc2c(NC(=O)Nc3ccc(C(F)(F)F)cc3)cccc2C(=O)N([C@H](C)CO)C[C@@H]1C	inactive: 5.86%	
C/C(=N\NC(=O)c1ccc(NS(=O)(=O)c2cccs2)cc1)c1ccc(C(C)(C)C)cc1		inconclusive [activator, full curve, poor fit]
Cc1ccc(-c2cc(C(=O)NCc3ccccn3)no2)cc1		inconclusive [activator, partial curve, poor fit]
Cc1cc(C)c2ccc3c(C)c(C)nc3c2[nH]1		inconclusive [activator, single point]
CCCCCCN1C=CC=C/C1=C/C=C(C#N)C#N	inactive: -30.2%	
C/C(=N\NC(=S)NCc1ccccc1)c1ccc2ccccc2c1		inconclusive [activator, single point]
COc1cccc(-c2nc(-c3ccc(Br)o3)no2)c1		inconclusive [activator, full curve, poor fit]
Cc1cc(NC(=O)OC2CCCCC2)ccc1[N+](=O)[O-]		inconclusive [activator, full curve, poor fit]
O[C@@H]1CN(C2CCCCC2)CC[C@H]1N1CCN(CCc2ccccc2)CC1		inconclusive [activator, full curve, poor fit]
O=C(CSc1nnc2ccccn12)Nc1cccc(-c2nc3ccccc3s2)c1		inconclusive [activator, full curve]
CCOC(=O)c1c(C)oc2c1c(C(c1cccnc1)N1CCOCC1)c(O)c1ccccc12 (centres undefined)		inconclusive [activator, full curve, poor fit]

Compound	activity change, positive = activation	Potency
CC(C)(C)N=C1NN=C(c2cc3ccccc3o2)CS1		inconclusive [activator, partial curve, poor fit]
O=C(OCCOc1ccccc1)c1cccc(S(=O)(=O)N2CCOCC2)c1		inconclusive [activator, single point]
Cc1cc(=O)[nH]c(S/C=C/c2ccccc2)n1		inconclusive [activator, full curve, poor fit]
O=C(Nc1ccc2c(c1)CCCN2C(=O)c1cccs1)c1cccc(F)c1		inconclusive [activator, partial curve, poor fit]
COc1ccc(-c2ccc(SCc3ccccn3)nn2)cc1OC	inactive: -0.61%	
COc1ccc(NC(=O)c2c(C)noc2C(C)C)cc1S(=O)(=O)N1CCCCC1		inconclusive [activator, single point]
CN(CC(=O)NCCc1ccccc1)Cc1ccco1		inconclusive [activator, full curve, poor fit]
O=C(Nc1ccc(NC(=O)C2CCCCC2)nc1)c1ccco1		inconclusive [activator, partial curve, poor fit]
Cc1cc(NC(=O)CCSc2ccccc2)ccc1Br		inconclusive [activator, partial curve, poor fit]
COc1ccc(C(=O)Nn2c(SCC(=O)NCC3CCCO3)nc3ccccc3c2=O)cc1 (centres undefined)	inactive: -10.3%	
COc1ccc(NC(=S)N(CCCN2CCOCC2)Cc2cn(C)c3ccccc23)cc1OC	inactive: -13.3%	
Cc1ccc(C(=O)Nc2ccc(N3CCCC3)cc2)cc1	inactive: 16.3%	
CC(C)(C)c1ccc(C(=O)Nc2ccc(Cl)cc2)cc1		inconclusive [activator, full curve, poor fit]
C=CCNC(=O)N1CCCC(C(=O)c2cccc(OC(C)C)c2)C1 (centres undefined)		inconclusive [activator, single point]
COc1ccc(-n2ncc3c(NCCCN4CCOCC4)ncnc32)cc1		inconclusive [activator, full curve, poor fit]
CCN(CC)S(=O)(=O)c1cc(C(=O)Oc2cccc(-c3cnc4ccccc4n3)c2)ccc1OC		inconclusive [activator, full curve, poor fit]
Clc1cccc(CN2COc3c(cc(Cl)c4cccnc34)C2)c1		inconclusive [activator, single point]
C=CCn1c(-c2c(C)nc3cc(C)ccn23)n[nH]c1=S	inactive: -4.51%	
CCOc1ccc(Nc2nc3c(c(=O)[nH]2)CCCC3)cc1		inconclusive [activator, single point]
CC(C)(C)SCCNC(=O)c1ccc(NS(C)(=O)=O)cc1		inconclusive [activator, partial curve, poor fit]
Cc1ccccc1OCCCC(=O)NCc1ccco1	inactive: 2.9%	
Cc1ccc(N2C(=O)CS/C2=C(\C(Cl)=C(Cl)Cl)[N+](=O)[O-])cc1		inconclusive [activator, partial curve, poor fit]
O=C(Nc1cccc(-c2csc(Nc3ccc(Cl)cc3)n2)c1)c1cccc(C(F)(F)F)c1	inactive: 4.04%	

Compound	activity change, positive = activation	Potency
O=C(COc1ccc2c3c(c(=O)oc2c1)CCCC3)NCc1ccccn1	inactive: -5.14%	
O=C(CCn1c(=S)[nH]c2cc3c(cc2c1=O)OCO3)NCc1cccc(Cl)c1	inactive: 3.14%	
Cc1[nH]c2ccccc2c1/C=C/c1nc2ccccc2c(=O)[nH]1	inactive: -4.57%	
CCn1c(SC(C)C(=O)Nc2ccc3c(c2)OCCO3)nnc1C1CC1 (centres undefined)	inactive: 4.5%	
COc1cccc(C2N=C(c3ccccc3C)NO2)c1OC (centres undefined)		inconclusive [activator, partial curve, poor fit]
CCCSc1nnc(-c2ccccc2N)c(=O)[nH]1		inconclusive [activator, partial curve, poor fit]
COc1ccc2nc(NC(=O)CSc3cn[nH]n3)sc2c1		inconclusive [activator, partial curve, poor fit]
Cc1ccc(Cl)cc1N1CCN(CC(O)COCc2ccco2)CC1 (centres undefined)	inactive: -6.53%	
O=C(NCCC(=O)N1CCN(S(=O)(=O)c2ccc(F)cc2)CC1)Nc1ccccc1		inconclusive [activator, single point]
CCOc1ccc2c(c1)C(c1ccccc1)=NNC(c1ccccc1)=N2		inconclusive [activator, partial curve, poor fit]
O=C(NCCc1ccccc1)c1ccc([N+](=O)[O-])cc1	inactive: -6.81%	
CN1CCN(C(=O)c2ccc3c(Cl)c4c(nc3c2)CCCC4)CC1		inconclusive [activator, single point]
COCCNC(=O)CN1CCC(NC(=O)Nc2ccccc2)CC1	inactive: 0.901%	
Cc1nc2cc(NC(=O)NCCC3=CCCCC3)ccc2o1		inconclusive [activator, partial curve, poor fit]
CCC(C(=O)O)N1C(=O)/C(=C/c2cccn2C)SC1=S (centres undefined)	inactive: -2.42%	
COc1ccc(NC(=O)CSc2ccc(C)cc2)cc1		inconclusive [activator, full curve, poor fit]
Cc1ccc(C(c2nnnn2CCC(C)C)N2CCN(C)CC2)cc1 (centres undefined)		inconclusive [activator, single point]
Cc1cc(C(=O)Nc2cccc(O)c2)c(C)o1		inconclusive [activator, single point]
CN(C)c1nc(-c2ccc([N+](=O)[O-])cc2)cs1		inconclusive [activator, partial curve, poor fit]
Cc1cc(C)n2nc3nc4c(cc3c2n1)CCCC4		inconclusive [activator, single point]
COc1cccc(/C=C2\CCC(C3CCCC3)C2=O)c1OC (centres undefined)		inconclusive [activator, full curve, poor fit]
CCOc1cc(C(=O)NN2CCOCC2)cc(OCC)c1OCC		inconclusive [activator, partial curve, poor fit]
COc1ccc(C(=O)c2ccccc2)c(O)c1		inconclusive [activator, partial curve, poor fit]
